The campaign covered roughly 400,000 compounds. About 2,200 (0.55%) were called active. The shares of active, inactive and inconclusive entries below differ from those in the screen. The call rests on the fitted dose curve; in most records, active means well fitted inhibition curve with a large enough effect; inconclusive means small, poorly fitted or top-dose-only effect, or another doubt; inactive means no such curve, though single readings can be large or run the other way. Potencies beside an inconclusive call are fits to weak or partial responses and may not hold up. More than one record can exist for a structure, and the calls need not agree.
Biological target: DNA polymerase kappa (Homo sapiens) (UniProt Q9UBT6)
Sequence of UniProt Q9UBT6 (Q9UBT6 whole entry, looked up): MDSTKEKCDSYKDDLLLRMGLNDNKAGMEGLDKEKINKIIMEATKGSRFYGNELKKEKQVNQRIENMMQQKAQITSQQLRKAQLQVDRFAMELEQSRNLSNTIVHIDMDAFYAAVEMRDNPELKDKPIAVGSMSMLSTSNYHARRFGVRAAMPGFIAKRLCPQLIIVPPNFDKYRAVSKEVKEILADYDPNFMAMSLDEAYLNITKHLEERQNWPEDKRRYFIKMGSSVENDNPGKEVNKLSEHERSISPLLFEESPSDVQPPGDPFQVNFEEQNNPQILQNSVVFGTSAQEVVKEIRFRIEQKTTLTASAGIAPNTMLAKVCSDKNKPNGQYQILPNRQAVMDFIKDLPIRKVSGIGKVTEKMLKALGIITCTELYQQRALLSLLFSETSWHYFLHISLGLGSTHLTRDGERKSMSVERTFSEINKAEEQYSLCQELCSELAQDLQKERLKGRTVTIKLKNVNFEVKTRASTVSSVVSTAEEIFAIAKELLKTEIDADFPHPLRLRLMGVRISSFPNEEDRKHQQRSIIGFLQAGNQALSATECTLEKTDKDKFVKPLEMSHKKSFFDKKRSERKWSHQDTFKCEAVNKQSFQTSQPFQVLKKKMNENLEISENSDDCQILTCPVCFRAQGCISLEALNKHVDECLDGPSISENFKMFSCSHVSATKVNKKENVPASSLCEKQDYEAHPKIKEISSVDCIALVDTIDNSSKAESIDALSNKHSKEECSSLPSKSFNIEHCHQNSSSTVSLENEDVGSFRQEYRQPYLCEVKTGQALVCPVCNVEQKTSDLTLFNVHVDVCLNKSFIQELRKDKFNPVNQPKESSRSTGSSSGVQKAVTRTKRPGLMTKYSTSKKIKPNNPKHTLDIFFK
Experiment: qHTS for Inhibitors of Polymerase Kappa
Settings: purified Pol kappa, fluorescent DNA synthesis assay, 10 min; series mostly up to 107 µM
Summary of the method: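 Pol kappa 10 nM + cpd, 15 min RT; start w/ substrate 50 nM final; fluorescence kinetic read, 0 and 10 min. Neg ctrl: buffer, no enzyme.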
On the % scale 0 is the no-effect control and ±100 the full control effect; potency means the concentration at half of the fitted maximal effect; tags describe the fitted curve by direction and shape.

SMILES	Potency	activity, negative = inhibition
COc1cc(NC(=O)c2ccc3c(SCC(=O)O)c4c(nc3c2)CCCC4)cc(OC)c1OC	inconclusive: 89.1 µM [inhibitor, partial curve, poor fit]	
Brc1ccc(-c2nn3c(-c4ccco4)nnc3s2)o1	inconclusive: 100 µM [inhibitor, single point]	
CC(/C=N/n1c(-c2ccc(Cl)cc2)n[nH]c1=S)=C\c1ccco1	inconclusive: 79.4 µM [inhibitor, single point]	
O=S(=O)(NCC(c1ccco1)S(=O)(=O)c1cccs1)c1ccccc1 (centres undefined)	inactive	
COC(=O)c1c(C)c2c(c(C)c1O)OC(=O)c1c(C)c(Cl)c(O)c(Cl)c1O2	inactive	
COCCCn1c(Cc2csc(Nc3cccc(Cl)c3)n2)nnc1SCC(=O)OC1CCCCC1	inconclusive: 79.4 µM [inhibitor, partial curve, poor fit]	
COCCn1c(C)cc(O)c(C(c2cccc(F)c2)N2CCN(c3ccccc3)CC2)c1=O (centres undefined)	inactive	
Cc1cc2c(=Cc3ccc(N(C)C)cc3)c3ccccc3n2[n+]1C	inconclusive: 79.4 µM [inhibitor, partial curve, poor fit]	
O=C(/C=C/c1cccc(F)c1)NC1CC1		inactive: 10.9% [at 19.4 µM]
COc1ccc2[nH]c(=O)cc(C(=O)O)c2c1	inconclusive: 56.2 µM [inhibitor, partial curve, poor fit]	
Cc1c(Cc2ccccc2)c(=O)oc2c(O)c(O)ccc12	inconclusive: 39.8 µM [inhibitor, full curve, poor fit]	
O=[N+]([O-])c1c(NCCCO)cc(Sc2nc3ccccc3s2)c2nonc12	inconclusive: 89.1 µM [inhibitor, single point]	
O=C(C[n+]1ccccc1Br)c1ccc2c(c1)CCCC2	inconclusive: 63.1 µM [inhibitor, partial curve, poor fit]	
Clc1cccc(Cl)c1C1Nc2cccc3cccc(c23)N1	inactive	
CN(C)S(=O)(=O)c1cccc(C(=O)OCC(=O)Nc2sccc2C(N)=O)c1	inconclusive: 89.1 µM [inhibitor, single point]	
Cc1cccc(NC(=O)Cn2c(O)c(N=NC(N)=S)c3ccccc32)c1	inconclusive: 79.4 µM [inhibitor, partial curve, poor fit]	
O=C1C2C3CCCC3=C3CCCC3C2C(=O)N1c1cccc(Cl)c1 (centres undefined)	inconclusive: 89.1 µM [inhibitor, partial curve, poor fit]	
CCN1CCN(C(=O)c2cc(-c3ccco3)nc3ccccc23)CC1	inconclusive: 89.1 µM [inhibitor, single point]	
Cc1ccc(-c2nc(-c3cccs3)c(-c3cccs3)[nH]2)cc1	inconclusive: 79.4 µM [inhibitor, partial curve, poor fit]	
O=C(Nc1ccc(Br)cc1)c1cc(S(=O)(=O)N2CCc3ccccc32)ccc1F	inactive	
Cc1cnc(C=NNC(N)=S)c2cccc(N)c12	inconclusive: 3.16 µM [inhibitor, full curve, poor fit]	
COc1cccc(NC(=O)COC(=O)c2ccc(S(=O)(=O)NCc3ccco3)cc2)c1	inconclusive: 89.1 µM [inhibitor, single point]	

SMILES	Potency	activity, negative = inhibition
CC1(OC(=O)C2CCCC2)C(=O)C=C2C=C(c3ccsc3)N(Cc3ccco3)C=C2C1=O (centres undefined)	active: 25.1 µM	
CN1CCN(c2nc(-c3ccc(N(C)C)cc3)nc3ccccc23)CC1	inconclusive: 1 µM [inhibitor, full curve, poor fit]	
O=C1/C(=C/c2ccco2)SC(=S)N1CC1CCCO1 (centres undefined)	active: 89.1 µM	
C=CCC1=C/C(=C\c2c(N)n3nc(CC(=O)N4CCOCC4)sc3nc2=O)C=C(OC)C1=O	inconclusive: 89.1 µM [inhibitor, single point]	
CC1CCCCN1CC(=O)Nc1ccccc1Sc1ccccc1 (centres undefined)	inconclusive: 89.1 µM [inhibitor, single point]	
CCn1c(SCC(=O)O)nc2sc3c(c2c1=O)CCC3	inconclusive: 89.1 µM [inhibitor, single point]	
CC1CCC(C(C)C)C2=C1C(C#N)(C#N)C(C#N)(C#N)C(c1ccccc1)N2 (centres undefined)	inactive	
COCCCNC(=O)CSc1nc2nc(C)c(Cc3ccccc3Cl)c(C)n2n1	inactive	
COc1ccc(/C=C(\C#N)c2nc(-c3ccc(Cl)c(Cl)c3)cs2)cc1OC	inactive	
CC(C)CC(NC(=O)/C(=C/c1ccco1)NC(=O)c1ccc(Br)o1)C(=O)O (centres undefined)	active: 70.8 µM	
O=C(NCc1ccccc1Cl)C(=O)NCC(c1ccco1)S(=O)(=O)c1cccs1 (centres undefined)	inactive	
N#Cc1cccc(-c2nc(Nc3ccncc3)c3ccccc3n2)c1	inconclusive: 31.6 µM [inhibitor, single point]	
COc1ccc(Cn2c(=O)c3oc4ccccc4c3n(CC(=O)Nc3cc(C)cc(C)c3)c2=O)cc1	inactive	
CC(C)Cc1nnc(NC(=O)CN2C(=O)C3CCCCC3C2=O)s1 (centres undefined)	inactive	
C=CCNC(=O)CSc1nc2scc(-c3ccco3)c2c(=O)n1CC=C	inconclusive: 100 µM [inhibitor, single point]	
COC(=O)[C@H]1[C@H]2C[C@@H]3c4[nH]c5ccccc5c4CCN3C[C@H]2C[C@@H](OC(=O)c2cc(OC)c(OC)c(OC)c2)[C@@H]1OC	inconclusive: 3.98 µM [inhibitor, partial curve]	
CN=c1scc(-c2ccccc2F)n1/N=C/c1ccc(O)c(O)c1O	inconclusive: 79.4 µM [inhibitor, single point]	
O=C(/C=C/c1ccco1)NC(=S)Nc1cccc(-c2nc3ccccc3o2)c1	active: 79.4 µM	
COc1cc(CNC2CCCCCCC2)c(Br)cc1OCCO	inconclusive: 79.4 µM [inhibitor, partial curve, poor fit]	
Oc1ccc([C@@H]2CNCCc3c2cc(O)c(O)c3Cl)cc1	inconclusive: 11.2 µM [inhibitor, partial curve]	
O=C(NCc1ccco1)C1CCN(C(=O)N2CCOc3ccc(Cl)cc32)CC1	inconclusive: 89.1 µM [inhibitor, single point]	
O=C(O)c1cc(Cl)c2c(c1)[C@@H]1C=CC[C@@H]1[C@H](c1ccc(S(=O)(=O)N3CCOCC3)cc1)N2	inconclusive: 89.1 µM [inhibitor, single point]	

SMILES	Potency	activity, negative = inhibition
CCN(c1ncnc2c1cnn2-c1cc(Cl)ccc1C)C1CCCCC1	inactive	
Cc1ccc(C)c(/C=C(\C(=O)O)c2ccc(S(=O)(=O)N3CCCCC3)s2)c1	inconclusive: 79.4 µM [inhibitor, single point]	
O=C(CSc1nnc(NC(=O)c2c(F)cccc2F)s1)NCc1ccco1	inconclusive: 89.1 µM [inhibitor, single point]	
COc1cccc(N2CCN(CC(=O)NC(=O)NCc3ccco3)CC2)c1	inconclusive: 56.2 µM [inhibitor, partial curve, poor fit]	
O=C(CCS(=O)(=O)c1ccc(Br)cc1)NCCc1ccccc1	inconclusive: 89.1 µM [inhibitor, single point]	
COC(=O)c1cccc(NC(=O)CSc2nc(O)c(-c3ccccc3)c(=O)[nH]2)c1	inconclusive: 89.1 µM [inhibitor, single point]	
Cc1nc2ccc3nc(NC(=O)c4ccco4)sc3c2s1	inconclusive: 35.5 µM [inhibitor, partial curve, poor fit]	
CSCC[C@H](NC(=O)[C@H](CC(C)C)N(C)C(=O)[C@@H]1CCCN1C(=O)[C@H](Cc1ccccc1)NC(=O)[C@H](Cc1ccccc1)NC(=O)CCC(C)N)C(=O)O (some centres undefined)	inactive	
Cc1ccc(NC(=O)C2CCN(S(=O)(=O)c3ccccc3)CC2)cc1	inactive	
C[C@]12CCC(=O)C=C1C=C[C@@H]1[C@@H]2CC[C@@]2(C)[C@H]1CC[C@@]21CCC(=O)O1	inactive	
O=C(c1ccc(COc2c(F)c(F)c(F)c(F)c2F)o1)N1CCN(Cc2ccc3c(c2)OCO3)CC1	inconclusive: 89.1 µM [inhibitor, partial curve, poor fit]	
COc1ccc(Oc2nc3c(c(=O)n(C)c(=O)n3C)n2Cc2ccccc2Cl)cc1	inconclusive: 89.1 µM [inhibitor, single point]	
CC1(C)[C@@H](O)CC[C@]2(C)[C@H]3C(=O)C=C4[C@@H]5C[C@@](C)(C(=O)O)CC[C@]5(C)CC[C@@]4(C)[C@]3(C)CC[C@@H]12	active: 33.6 µM	
COC(=O)c1ccc(COc2ccc(/C=N/Nc3cccc(C(=O)O)c3)cc2)cc1	inconclusive: 100 µM [inhibitor, single point]	
Cn1c(=O)n(CCc2ccccc2)c(=O)c2c1ncn2Cc1ccccc1	inconclusive: 39.8 µM [inhibitor, single point]	
Cc1cc(=O)oc(C)c1C(=O)OCC(=O)c1ccc(Br)cc1	inconclusive: 100 µM [inhibitor, partial curve, poor fit]	
N#C/C(=C\c1ccc(Br)cc1)c1nc(-c2cc3cc(Br)ccc3oc2=O)cs1	inconclusive: 100 µM [inhibitor, partial curve, poor fit]	
CCOC(=O)C1CCCN(C(=O)CSc2ccc(NC(C)=O)cc2)C1 (centres undefined)	inactive	
CCC(OCC(O)CN1CCN(CCN2C(=O)c3cccc4cccc(c34)C2=O)CC1)c1ccccc1 (centres undefined)	inconclusive: 100 µM [inhibitor, single point]	
COc1ccc(-c2cnnc(N/N=C/c3ccc(O)c(O)c3)n2)cc1	active: 25.1 µM	

Reference: PubChem BioAssay AID588579 (National Center for Advancing Translational Sciences (NCATS), 2011)
